According to publication PMC7406511:
These are yes or no findings as the source states them, for the method shown. Binding seen in cells or lysates may run through a third protein. Some binding calls cover weakened binding; strength is not graded here. For some of these results: Tags and fused reporters may be left off the sequences shown. Values belong to the molecule of their own block, whether it stands above or below them.

Chains of the proteins cited; added tags and fusions are not shown.
UniProt Q14457: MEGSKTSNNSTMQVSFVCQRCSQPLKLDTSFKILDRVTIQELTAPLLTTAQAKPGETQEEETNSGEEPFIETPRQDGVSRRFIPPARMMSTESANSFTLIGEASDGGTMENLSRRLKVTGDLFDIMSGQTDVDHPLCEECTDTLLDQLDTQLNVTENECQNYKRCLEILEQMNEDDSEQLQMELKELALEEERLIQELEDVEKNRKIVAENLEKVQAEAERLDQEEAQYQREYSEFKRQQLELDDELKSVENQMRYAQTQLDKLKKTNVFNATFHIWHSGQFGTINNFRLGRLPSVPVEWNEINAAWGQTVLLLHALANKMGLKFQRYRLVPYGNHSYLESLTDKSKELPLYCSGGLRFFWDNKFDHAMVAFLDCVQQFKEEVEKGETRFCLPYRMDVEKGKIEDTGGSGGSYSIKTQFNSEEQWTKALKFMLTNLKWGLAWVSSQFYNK
UniProt P06493: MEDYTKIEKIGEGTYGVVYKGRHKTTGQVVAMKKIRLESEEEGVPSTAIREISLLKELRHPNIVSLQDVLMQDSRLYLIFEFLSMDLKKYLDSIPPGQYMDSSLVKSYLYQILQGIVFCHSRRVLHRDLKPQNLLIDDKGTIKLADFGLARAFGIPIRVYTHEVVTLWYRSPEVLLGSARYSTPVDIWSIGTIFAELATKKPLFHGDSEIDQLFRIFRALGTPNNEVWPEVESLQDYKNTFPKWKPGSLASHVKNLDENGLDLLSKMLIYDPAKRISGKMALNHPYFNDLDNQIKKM
UniProt O96017: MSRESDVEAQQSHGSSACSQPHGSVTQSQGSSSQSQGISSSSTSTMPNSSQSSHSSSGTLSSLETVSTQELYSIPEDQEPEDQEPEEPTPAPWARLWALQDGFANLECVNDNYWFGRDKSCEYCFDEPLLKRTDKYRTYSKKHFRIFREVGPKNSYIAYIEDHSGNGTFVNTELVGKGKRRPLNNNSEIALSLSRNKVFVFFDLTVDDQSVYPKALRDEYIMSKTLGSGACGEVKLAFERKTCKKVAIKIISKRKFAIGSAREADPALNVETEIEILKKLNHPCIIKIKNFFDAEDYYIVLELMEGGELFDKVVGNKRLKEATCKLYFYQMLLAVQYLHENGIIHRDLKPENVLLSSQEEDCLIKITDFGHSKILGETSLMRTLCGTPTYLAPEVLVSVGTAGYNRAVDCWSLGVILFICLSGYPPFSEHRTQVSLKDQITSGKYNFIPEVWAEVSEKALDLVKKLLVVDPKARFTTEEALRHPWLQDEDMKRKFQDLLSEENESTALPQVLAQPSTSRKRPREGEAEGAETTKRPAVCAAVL
UniProt P14635: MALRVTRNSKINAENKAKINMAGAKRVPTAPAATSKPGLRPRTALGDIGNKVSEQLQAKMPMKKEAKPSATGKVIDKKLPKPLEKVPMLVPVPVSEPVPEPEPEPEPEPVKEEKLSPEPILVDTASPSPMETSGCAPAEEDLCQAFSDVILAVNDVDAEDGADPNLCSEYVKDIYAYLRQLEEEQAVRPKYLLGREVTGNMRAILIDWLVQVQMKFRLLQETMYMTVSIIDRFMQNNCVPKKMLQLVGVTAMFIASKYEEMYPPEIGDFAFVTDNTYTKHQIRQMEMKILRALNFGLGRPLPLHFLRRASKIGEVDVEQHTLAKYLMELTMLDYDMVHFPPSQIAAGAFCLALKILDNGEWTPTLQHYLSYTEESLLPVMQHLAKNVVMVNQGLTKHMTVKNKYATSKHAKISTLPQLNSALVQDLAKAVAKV
UniProt P30291: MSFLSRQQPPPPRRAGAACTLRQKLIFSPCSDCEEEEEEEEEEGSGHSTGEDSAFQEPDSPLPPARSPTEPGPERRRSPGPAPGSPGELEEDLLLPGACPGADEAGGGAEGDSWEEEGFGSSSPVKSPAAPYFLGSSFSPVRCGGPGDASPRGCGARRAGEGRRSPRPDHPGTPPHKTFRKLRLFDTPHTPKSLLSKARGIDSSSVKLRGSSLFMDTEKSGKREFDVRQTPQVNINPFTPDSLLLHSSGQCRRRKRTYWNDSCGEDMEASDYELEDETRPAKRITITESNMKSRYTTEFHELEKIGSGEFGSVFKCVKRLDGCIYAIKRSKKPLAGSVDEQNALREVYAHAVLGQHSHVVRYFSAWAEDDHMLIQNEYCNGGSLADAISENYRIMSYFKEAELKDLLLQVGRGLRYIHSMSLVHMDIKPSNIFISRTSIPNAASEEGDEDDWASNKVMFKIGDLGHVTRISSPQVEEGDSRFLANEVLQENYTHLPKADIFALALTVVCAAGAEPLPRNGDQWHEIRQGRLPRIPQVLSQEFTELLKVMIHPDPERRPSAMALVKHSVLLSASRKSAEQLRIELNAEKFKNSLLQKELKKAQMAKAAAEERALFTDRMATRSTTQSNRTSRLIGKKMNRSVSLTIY
UniProt P10415: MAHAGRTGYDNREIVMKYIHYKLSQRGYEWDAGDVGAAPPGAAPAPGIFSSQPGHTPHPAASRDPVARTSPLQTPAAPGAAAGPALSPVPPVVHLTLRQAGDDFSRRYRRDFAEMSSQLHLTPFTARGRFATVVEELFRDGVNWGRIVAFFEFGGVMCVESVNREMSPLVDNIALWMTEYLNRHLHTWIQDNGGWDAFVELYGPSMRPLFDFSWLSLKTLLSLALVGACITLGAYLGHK

Legend:
[1] = target: BECN1 (human (endogenous in MDA-MB-231)) (UniProt Q14457); experiment: co-IP; anti-BECN1 immunoprecipitates from MDA-MB-231 cells with or without 4-Gy irradiation; western blot with the indicated antibodies
[2] = target: T1, CDC25C (human (endogenous in MDA-MB-231)) (UniProt P30307); experiment: co-IP; anti-CDC25 immunoprecipitates from BECN1-WT cells and from BECN1-KO MDA-MB-231 cells overexpressing Flag-BECN1 or its mutants, with or without irradiation; western blot with anti-CDC25C and anti-CHK2
T1 sequence: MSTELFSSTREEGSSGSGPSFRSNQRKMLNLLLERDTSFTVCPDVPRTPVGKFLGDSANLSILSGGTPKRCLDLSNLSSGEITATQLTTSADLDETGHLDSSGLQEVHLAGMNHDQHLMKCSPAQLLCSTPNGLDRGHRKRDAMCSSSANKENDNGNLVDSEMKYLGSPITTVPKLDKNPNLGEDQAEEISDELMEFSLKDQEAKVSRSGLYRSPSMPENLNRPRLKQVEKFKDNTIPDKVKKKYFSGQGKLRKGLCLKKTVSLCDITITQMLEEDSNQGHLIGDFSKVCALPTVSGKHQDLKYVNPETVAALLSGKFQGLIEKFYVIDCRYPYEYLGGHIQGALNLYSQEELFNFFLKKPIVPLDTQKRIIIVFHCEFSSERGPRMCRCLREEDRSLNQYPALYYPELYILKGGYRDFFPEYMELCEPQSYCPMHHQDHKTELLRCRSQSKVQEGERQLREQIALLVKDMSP

[3] = target: BECN1 (human (endogenous in MDA-MB-231)) (UniProt Q14457); experiment: co-IP; nuclear fraction of MDA-MB-231 cells with or without 4-Gy irradiation; immunoprecipitates with anti-BECN1, anti-CHK2 or anti-CDC25C; western blot with anti-CDC25C and anti-CHK2
Flag-BECN1 = Flag-BECN1 (UniProt Q14457); experiment: co-IP; Flag-BECN1 and its deletion mutants overexpressed in MDA-MB-231 cells; immunoprecipitation with a flag antibody
[4] = target: BECN1 (human (endogenous in MDA-MB-231)) (UniProt Q14457); experiment: co-IP; cytoplasmic fraction of MDA-MB-231 cells with or without 4-Gy irradiation; immunoprecipitates with anti-BECN1, anti-CHK2 or anti-CDC25C; western blot with anti-CDC25C and anti-CHK2
Flag-CDC25C = target: T2, Flag-CDC25C (UniProt P30307); experiment: co-IP; BECN1-WT and BECN1-KO cells transfected with Flag- or HA-tagged expression vectors, with or without irradiation, BECN1 re-expressed in KO cells; immunoprecipitation with anti-HA or anti-Flag; western blot with anti-Flag, anti-HA, anti-CDK1 and anti-CCNB1
T2 sequence: T1 sequence

[5] = target: CDK1 (human (endogenous in MDA-MB-231)) (UniProt P06493); experiment: co-IP; anti-CDK1 immunoprecipitates from lysates of BECN1-WT and BECN1-KO MDA-MB-231 cells (DMSO or 3-MA; with or without 4-Gy irradiation; BECN1 re-expressed in KO cells); lysis in PBS buffer with 50 nM Tris-base, 1 mM EDTA, 1% NP-40; Pierce Classic IP Kit; western blot
HA-CHK2 = HA-CHK2 (UniProt O96017); experiment: co-IP; BECN1-WT and BECN1-KO cells transfected with Flag- or HA-tagged expression vectors, with or without irradiation, BECN1 re-expressed in KO cells; immunoprecipitation with anti-HA or anti-Flag; western blot with anti-Flag, anti-HA, anti-CDK1 and anti-CCNB1

Molecule: CCNB1 (from UniProt P14635 1-433)
binding [1]: no binding

Molecule: HA-CHK2 (from UniProt O96017 1-543) (enzyme)
binding (Flag-CDC25C): binds

Molecule: WEE1 (from UniProt P30291 1-646) (enzyme)
binding [1]: no binding
binding [5]: binds

B2: Flag-CDC25C (enzyme, UniProt P30307 1-473)
chain: T1 sequence
binding (HA-CHK2): binds

Now from value to molecule, other results behind:

binding [1]: binds
Molecule: BCL2 (from UniProt P10415 1-239)

binding [2]: binds
binding [3]: binds
binding (Flag-BECN1): binds
binding [1]: binds
Molecule: CHK2 (from UniProt O96017 1-543) (enzyme)
binding [4]: no binding (condition: in the cytoplasmic fraction)

binding [3]: binds
binding (Flag-BECN1): binds
binding [1]: binds
binding [5]: binds
B1: CDC25C (enzyme, UniProt P30307 1-473)
chain: T1 sequence
binding [4]: no binding (condition: in the cytoplasmic fraction)
